From PMC10412584, “Molecular reshaping of phage-displayed Interleukin-2 at beta chain receptor interface to obtain potent super-agonists with improved developability profiles” (Communications Biology, 2023)

Target: T1, recombinant fusion protein comprising human IL-2R beta subunit extracellular domain and mouse IgG2a Fc (human, UniProt P14784 27-240)
T1 construct: human IL-2 receptor beta subunit (CD122), extracellular domain; also called IL-2R beta/mFc; IL-2R beta ECD/mouse IgG2a Fc
T1 sequence (looked up): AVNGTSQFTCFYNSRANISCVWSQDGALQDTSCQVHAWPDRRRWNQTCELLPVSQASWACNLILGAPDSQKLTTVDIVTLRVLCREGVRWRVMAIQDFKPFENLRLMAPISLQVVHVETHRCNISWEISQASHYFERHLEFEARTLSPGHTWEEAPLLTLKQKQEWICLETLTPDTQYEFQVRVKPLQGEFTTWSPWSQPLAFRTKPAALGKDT
Test: ELISA; polyvinyl chloride plates coated with IL-2R beta ECD/mouse IgG2a Fc at 10 µg/mL in PBS; Fc-fusion proteins diluted in M-PBS, 1 h at RT; detected with anti-human IgG-HRP
Settings: both partners purified

binding result: binds
B1: fusion protein containing I92L-hIL-2 (K35E, human IgG1 Fc) (Fc fusion)
chain: not shown
notes: human interleukin-2; the first two aa (Ala-Pro) are present in the Fc constructs; also called I92L-containing fusion protein; source: HEK-293T adapted to suspension, transient transfection, purified from supernatant (protein A)
